B1: PD1-IL7-VAR23 (Q136A) (other)
light: DIVMTQSPDSLAVSLGERATINCKASESVDTSDNSFIHWYQQKPGQSPKLLIYRSSTLESGVPDRFSGSGSGTDFTLTISSLQAEDVAVYYCQQNYDVPWTFGQGTKVEIKRTVAAPSVFIFPPSDEQLKSGTASVVCLLNNFYPREAKVQWKVDNALQSGNSQESVTEQDSKDSTYSLSSTLTLSKADYEKHKVYACEVTHQGLSSPVTKSFNRGEC
heavy 1: EVQLLESGGGLVQPGGSLRLSCAASGFSFSSYTMSWVRQAPGKGLEWVATISGGGRDIYYPDSVKGRFTISRDNSKNTLYLQMNSLRAEDTAVYYCVLLTGRVYFALDSWGQGTLVTVSSASTKGPSVFPLAPSSKSTSGGTAALGCLVKDYFPEPVTVSWNSGALTSGVHTFPAVLQSSGLYSLSSVVTVPSSSLGTQTYICNVNHKPSNTKVDKKVEPKSCDKTHTCPPCPAPEAAGGPSVFLFPPKPKDTLMISRTPEVTCVVVDVSHEDPEVKFNWYVDGVEVHNAKTKPREEQYNSTYRVVSVLTVLHQDWLNGKEYKCKVSNKALGAPIEKTISKAKGQPREPQVCTLPPSRDELTKNQVSLSCAVKGFYPSDIAVEWESNGQPENNYKTTPPVLDSDGSFFLVSKLTVDKSRWQQGNVFSCSVMHEALHNHYTQKSLSLSPGK
heavy 2: EVQLLESGGGLVQPGGSLRLSCAASGFSFSSYTMSWVRQAPGKGLEWVATISGGGRDIYYPDSVKGRFTISRDNSKNTLYLQMNSLRAEDTAVYYCVLLTGRVYFALDSWGQGTLVTVSSASTKGPSVFPLAPSSKSTSGGTAALGCLVKDYFPEPVTVSWNSGALTSGVHTFPAVLQSSGLYSLSSVVTVPSSSLGTQTYICNVNHKPSNTKVDKKV[human IgG1 Fc with changes left out]GGGGSGGGGSGGGGSDCDIEGKDGKQYESVLMVSIDQLLDSMKEIGSNCLNNEFNFFKRHICDANKEGMFLFRAARKLRQFLKMNSTGDFDLHLLKVSEGTTILLNCTGQVKGRKPAALGEAQPTKSLEENKSLKEQKKLNDLCFLKRLLAEIKTCWNKILMGTKEH
notes: Format as m1; IL-7 with Q136A
B2: PD1-IL7-VAR12 (D25K) (other)
light: B1 light
heavy 1: B1 heavy 1
heavy 2: EVQLLESGGGLVQPGGSLRLSCAASGFSFSSYTMSWVRQAPGKGLEWVATISGGGRDIYYPDSVKGRFTISRDNSKNTLYLQMNSLRAEDTAVYYCVLLTGRVYFALDSWGQGTLVTVSSASTKGPSVFPLAPSSKSTSGGTAALGCLVKDYFPEPVTVSWNSGALTSGVHTFPAVLQSSGLYSLSSVVTVPSSSLGTQTYICNVNHKPSNTKVDKKV[human IgG1 Fc with changes left out]GGGGSGGGGSGGGGSDCDIEGKDGKQYESVLMVSIDQLLKSMKEIGSNCLNNEFNFFKRHICDANKEGMFLFRAARKLRQFLKMNSTGDFDLHLLKVSEGTTILLNCTGQVKGRKPAALGEAQPTKSLEENKSLKEQKKLNDLCFLKRLLQEIKTCWNKILMGTKEH
notes: Format as m1; IL-7 with D25K
B3: PD1-IL7-VAR11 (D25A) (other)
light: B1 light
heavy 1: B1 heavy 1
heavy 2: EVQLLESGGGLVQPGGSLRLSCAASGFSFSSYTMSWVRQAPGKGLEWVATISGGGRDIYYPDSVKGRFTISRDNSKNTLYLQMNSLRAEDTAVYYCVLLTGRVYFALDSWGQGTLVTVSSASTKGPSVFPLAPSSKSTSGGTAALGCLVKDYFPEPVTVSWNSGALTSGVHTFPAVLQSSGLYSLSSVVTVPSSSLGTQTYICNVNHKPSNTKVDKKV[human IgG1 Fc with changes left out]GGGGSGGGGSGGGGSDCDIEGKDGKQYESVLMVSIDQLLASMKEIGSNCLNNEFNFFKRHICDANKEGMFLFRAARKLRQFLKMNSTGDFDLHLLKVSEGTTILLNCTGQVKGRKPAALGEAQPTKSLEENKSLKEQKKLNDLCFLKRLLQEIKTCWNKILMGTKEH
notes: Format as m1; IL-7 with D25A
B4: PD1-IL7-VAR25 (K139A) (other)
light: B1 light
heavy 1: B1 heavy 1
heavy 2: EVQLLESGGGLVQPGGSLRLSCAASGFSFSSYTMSWVRQAPGKGLEWVATISGGGRDIYYPDSVKGRFTISRDNSKNTLYLQMNSLRAEDTAVYYCVLLTGRVYFALDSWGQGTLVTVSSASTKGPSVFPLAPSSKSTSGGTAALGCLVKDYFPEPVTVSWNSGALTSGVHTFPAVLQSSGLYSLSSVVTVPSSSLGTQTYICNVNHKPSNTKVDKKV[human IgG1 Fc with changes left out]GGGGSGGGGSGGGGSDCDIEGKDGKQYESVLMVSIDQLLDSMKEIGSNCLNNEFNFFKRHICDANKEGMFLFRAARKLRQFLKMNSTGDFDLHLLKVSEGTTILLNCTGQVKGRKPAALGEAQPTKSLEENKSLKEQKKLNDLCFLKRLLQEIATCWNKILMGTKEH
notes: Format as m1; IL-7 with K139A
B5: PD1-IL7-VAR24 (Q136K) (other)
light: B1 light
heavy 1: B1 heavy 1
heavy 2: EVQLLESGGGLVQPGGSLRLSCAASGFSFSSYTMSWVRQAPGKGLEWVATISGGGRDIYYPDSVKGRFTISRDNSKNTLYLQMNSLRAEDTAVYYCVLLTGRVYFALDSWGQGTLVTVSSASTKGPSVFPLAPSSKSTSGGTAALGCLVKDYFPEPVTVSWNSGALTSGVHTFPAVLQSSGLYSLSSVVTVPSSSLGTQTYICNVNHKPSNTKVDKKV[human IgG1 Fc with changes left out]GGGGSGGGGSGGGGSDCDIEGKDGKQYESVLMVSIDQLLDSMKEIGSNCLNNEFNFFKRHICDANKEGMFLFRAARKLRQFLKMNSTGDFDLHLLKVSEGTTILLNCTGQVKGRKPAALGEAQPTKSLEENKSLKEQKKLNDLCFLKRLLKEIKTCWNKILMGTKEH
notes: Format as m1; IL-7 with Q136K
B6: PD1-IL7-VAR10 (Q22K) (other)
light: B1 light
heavy 1: B1 heavy 1
heavy 2: EVQLLESGGGLVQPGGSLRLSCAASGFSFSSYTMSWVRQAPGKGLEWVATISGGGRDIYYPDSVKGRFTISRDNSKNTLYLQMNSLRAEDTAVYYCVLLTGRVYFALDSWGQGTLVTVSSASTKGPSVFPLAPSSKSTSGGTAALGCLVKDYFPEPVTVSWNSGALTSGVHTFPAVLQSSGLYSLSSVVTVPSSSLGTQTYICNVNHKPSNTKVDKKV[human IgG1 Fc with changes left out]GGGGSGGGGSGGGGSDCDIEGKDGKQYESVLMVSIDKLLDSMKEIGSNCLNNEFNFFKRHICDANKEGMFLFRAARKLRQFLKMNSTGDFDLHLLKVSEGTTILLNCTGQVKGRKPAALGEAQPTKSLEENKSLKEQKKLNDLCFLKRLLQEIKTCWNKILMGTKEH
notes: Format as m1; IL-7 with Q22K
B7: PD1-IL7-VAR17 (K81A) (other)
light: B1 light
heavy 1: B1 heavy 1
heavy 2: EVQLLESGGGLVQPGGSLRLSCAASGFSFSSYTMSWVRQAPGKGLEWVATISGGGRDIYYPDSVKGRFTISRDNSKNTLYLQMNSLRAEDTAVYYCVLLTGRVYFALDSWGQGTLVTVSSASTKGPSVFPLAPSSKSTSGGTAALGCLVKDYFPEPVTVSWNSGALTSGVHTFPAVLQSSGLYSLSSVVTVPSSSLGTQTYICNVNHKPSNTKVDKKV[human IgG1 Fc with changes left out]GGGGSGGGGSGGGGSDCDIEGKDGKQYESVLMVSIDQLLDSMKEIGSNCLNNEFNFFKRHICDANKEGMFLFRAARKLRQFLKMNSTGDFDLHLLAVSEGTTILLNCTGQVKGRKPAALGEAQPTKSLEENKSLKEQKKLNDLCFLKRLLQEIKTCWNKILMGTKEH
notes: Format as m1; IL-7 with K81A
B8: PD1-IL7-VAR13 (D74A) (other)
light: B1 light
heavy 1: B1 heavy 1
heavy 2: EVQLLESGGGLVQPGGSLRLSCAASGFSFSSYTMSWVRQAPGKGLEWVATISGGGRDIYYPDSVKGRFTISRDNSKNTLYLQMNSLRAEDTAVYYCVLLTGRVYFALDSWGQGTLVTVSSASTKGPSVFPLAPSSKSTSGGTAALGCLVKDYFPEPVTVSWNSGALTSGVHTFPAVLQSSGLYSLSSVVTVPSSSLGTQTYICNVNHKPSNTKVDKKV[human IgG1 Fc with changes left out]GGGGSGGGGSGGGGSDCDIEGKDGKQYESVLMVSIDQLLDSMKEIGSNCLNNEFNFFKRHICDANKEGMFLFRAARKLRQFLKMNSTGAFDLHLLKVSEGTTILLNCTGQVKGRKPAALGEAQPTKSLEENKSLKEQKKLNDLCFLKRLLQEIKTCWNKILMGTKEH
notes: Format as m1; IL-7 with D74A
B9: PD1-IL7-VAR19 (E84A) (other)
light: B1 light
heavy 1: B1 heavy 1
heavy 2: EVQLLESGGGLVQPGGSLRLSCAASGFSFSSYTMSWVRQAPGKGLEWVATISGGGRDIYYPDSVKGRFTISRDNSKNTLYLQMNSLRAEDTAVYYCVLLTGRVYFALDSWGQGTLVTVSSASTKGPSVFPLAPSSKSTSGGTAALGCLVKDYFPEPVTVSWNSGALTSGVHTFPAVLQSSGLYSLSSVVTVPSSSLGTQTYICNVNHKPSNTKVDKKV[human IgG1 Fc with changes left out]GGGGSGGGGSGGGGSDCDIEGKDGKQYESVLMVSIDQLLDSMKEIGSNCLNNEFNFFKRHICDANKEGMFLFRAARKLRQFLKMNSTGDFDLHLLKVSAGTTILLNCTGQVKGRKPAALGEAQPTKSLEENKSLKEQKKLNDLCFLKRLLQEIKTCWNKILMGTKEH
notes: Format as m1; IL-7 with E84A
B10: PD1-IL7-VAR14 (D74K) (other)
light: B1 light
heavy 1: B1 heavy 1
heavy 2: EVQLLESGGGLVQPGGSLRLSCAASGFSFSSYTMSWVRQAPGKGLEWVATISGGGRDIYYPDSVKGRFTISRDNSKNTLYLQMNSLRAEDTAVYYCVLLTGRVYFALDSWGQGTLVTVSSASTKGPSVFPLAPSSKSTSGGTAALGCLVKDYFPEPVTVSWNSGALTSGVHTFPAVLQSSGLYSLSSVVTVPSSSLGTQTYICNVNHKPSNTKVDKKV[human IgG1 Fc with changes left out]GGGGSGGGGSGGGGSDCDIEGKDGKQYESVLMVSIDQLLDSMKEIGSNCLNNEFNFFKRHICDANKEGMFLFRAARKLRQFLKMNSTGKFDLHLLKVSEGTTILLNCTGQVKGRKPAALGEAQPTKSLEENKSLKEQKKLNDLCFLKRLLQEIKTCWNKILMGTKEH
notes: Format as m1; IL-7 with D74K

The assay concerns the target T1, Human IL7Ra-IL2Rγ-Fc heterodimer (human, biotin on the avi tag).
T1 construct: Extracellular domains of IL-7Ralpha and IL-2Rgamma fused to Fc knob and Fc hole; also called hu IL7Ra-IL2Rγ-Fc avi biotin; human IL7Ra-IL2Rg-Fc biotin
In words: SPR, captured from supernatant, 800 nM receptor-Fc single injection. The protocol: Surface Plasmon Resonacne (SPR) experiments were performed on a Biacore T200 with HBS-EP+ as running buffer (0.01 M HEPES pH 7.4, 0.15 M NaCl, 0.005% Surfactant P20 (BR-1006-69, GE Healthcare)). Fc specific antibodies (Roche internal) were directly immobilized by amine coupling on a CM5 chip (GE Healthcare). The PDI-IL7 constructs were captured from supernatants for 120 s at 100 nM. […] Only the extracellular domains were fused to Fc domains, produced in HEK Expi Cells and purified by two-step column chromatography including affinity purification via Protein A followed by size-exclusion chromatography. A single injection of 800 nM hu IL 7Ra-IL2Rγ-Fc heterodimer was passed over the ligand at 30 µ1/min for 240 sec to record the association phase. The dissociation phase was monitored for 360 s and triggered by switching from the sample solution to HBS-EP+. The chip surface was regenerated after every cycle using one injection of 10 mM glycine pH 2 for 60 sec. Bulk refractive index differences were corrected for by subtracting the response obtained on the reference flow cell 1. The response units after the capture step and at the end of the association phase were recorded and a ratio of binding to capture was calculated. The single binding curves were fitted in the dissociation phase to obtain a koff for ease of comparison (Biacore Evaluation software, GE Healthcare).
The ratio of binding to capture was calculated and the dissociation phase was fitted to a single curve to support the characterization of the off-rate.
Background: In SPR one partner is held on a chip, and binding of the other changes the refractive index at the surface.
With B1, the koff is 0.000766 s⁻¹.

Consider B2, for which the koff came to 0.000715 s⁻¹.

Take B3: the koff is 0.000687 s⁻¹.

For B4, the koff came out at 0.000506 s⁻¹.

Molecule B5 came in with a koff of 0.000918 s⁻¹.

With B6, the koff turned out to be 0.000586 s⁻¹.

The molecule B7 showed a koff of 0.000648 s⁻¹.

Consider B8, for which the koff is 0.000681 s⁻¹.

Take B9: the koff was found to be 0.000611 s⁻¹.

B10 registered a koff of 0.000802 s⁻¹.

The term koff denotes the first-order rate constant of dissociation.

The values above are taken from patent US20230192795A1 (Hoffmann-La Roche, published 2023).
